Source: the supplement of paper PMC6089552
In all, about 3,200 compounds went through this assay and about 300 (9.4%) showed activity. Only a part is listed here, and it is no random draw.

Test system: A673/TR/shEF
Test: cell viability (LOESS-normalised, relative to median of negative controls) (log2 ratio); higher = more viable cells (less compound effect), active = hit call of the paper (over 3 MAD below the median)
Details: treatment time: 72 h
Method in brief: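 Viability of A673/TR/shEF Ewing sarcoma cells was determined by CellTiter-Glo luminescence. The cells, at 1,500 per well in 384-well plates, were grown with or without doxycycline from 24 h before compound addition to switch on EWS-FLI1 shRNA knockdown, then exposed for three days to library compounds at two or more concentrations or to DMSO controls. Signals were LOESS-corrected plate by plate, normalised to the negative-control median and log2-transformed.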

[1] = 0.25 µM, library screen: screen1, EWS-FLI1 expression: high (no doxycycline)
[2] = 0.25 µM, library screen: screen1, EWS-FLI1 expression: low (doxycycline-induced shRNA knockdown)
[3] = 2.5 µM, library screen: screen1, EWS-FLI1 expression: high (no doxycycline)
[4] = 2.5 µM, library screen: screen1, EWS-FLI1 expression: low (doxycycline-induced shRNA knockdown)
[5] = 0.25 µM, library screen: screen2, EWS-FLI1 expression: high (no doxycycline)
[6] = 0.25 µM, library screen: screen2, EWS-FLI1 expression: low (doxycycline-induced shRNA knockdown)
[7] = 2.5 µM, library screen: screen2, EWS-FLI1 expression: high (no doxycycline)
[8] = 2.5 µM, library screen: screen2, EWS-FLI1 expression: low (doxycycline-induced shRNA knockdown)
[9] = 0.103 µM, library screen: screen3, EWS-FLI1 expression: high (no doxycycline)
[10] = 0.103 µM, library screen: screen3, EWS-FLI1 expression: low (doxycycline-induced shRNA knockdown)
[11] = 0.308 µM, library screen: screen3, EWS-FLI1 expression: high (no doxycycline)
[12] = 0.308 µM, library screen: screen3, EWS-FLI1 expression: low (doxycycline-induced shRNA knockdown)
[13] = 0.926 µM, library screen: screen3, EWS-FLI1 expression: high (no doxycycline)
[14] = 0.926 µM, library screen: screen3, EWS-FLI1 expression: low (doxycycline-induced shRNA knockdown)
[15] = 2.8 µM, library screen: screen3, EWS-FLI1 expression: high (no doxycycline)
[16] = 2.8 µM, library screen: screen3, EWS-FLI1 expression: low (doxycycline-induced shRNA knockdown)
[17] = 8.3 µM, library screen: screen3, EWS-FLI1 expression: high (no doxycycline)
[18] = 8.3 µM, library screen: screen3, EWS-FLI1 expression: low (doxycycline-induced shRNA knockdown)
[19] = 25 µM, library screen: screen3, EWS-FLI1 expression: high (no doxycycline)
[20] = 25 µM, library screen: screen3, EWS-FLI1 expression: low (doxycycline-induced shRNA knockdown)

Measured: cell viability (log2)

C[C@@H]1C[C@H]2[C@@H]3CCC4=CC(=O)C=C[C@]4(C)[C@@]3(F)[C@@H](O)C[C@]2(C)[C@@]1(O)C(=O)COP(=O)(O)O
inactive: [1] 0.0323 | [2] -0.0432 | [3] 0.142 | [4] -0.0599

Nc1cc(Cl)c(NC2=NCCN2)c(Cl)c1
inactive: [5] -0.0484 | [6] 0.126 | [7] -0.0109 | [8] 0.0408

Cn1cnc([N+](=O)[O-])c1Sc1ncnc2nc[nH]c12
inactive: 0.025 µM, library screen: screen2, EWS-FLI1 expression: high (no doxycycline) 0.138 | 0.025 µM, library screen: screen2, EWS-FLI1 expression: low (doxycycline-induced shRNA knockdown) 0.0997 | [1] 0.0615 | [2] 0.0765 | [5] 0.159 | [6] 0.0607 | [3] -0.0254 | [4] 0.161 | [7] -0.0273 | [8] 0.0557 | 25 µM, library screen: screen2, EWS-FLI1 expression: low (doxycycline-induced shRNA knockdown) 0.03
active: 25 µM, library screen: screen2, EWS-FLI1 expression: high (no doxycycline) -0.337

COc1ccc(-c2oc3cc(O[C@@H]4O[C@H](CO)[C@@H](O)[C@H](O)[C@H]4O)c(OC)c(O)c3c(=O)c2OC)cc1O
inactive: [1] 0.0438 | [2] 0.127 | [3] 0.0949 | [4] 0.0982

CC[C@H](CO)Nc1nc(NCc2ccccc2)c2ncn(C(C)C)c2n1
active: [7] -0.591 | [8] -0.646

OCCN(CCO)c1nc(N2CCCCC2)c2nc(N(CCO)CCO)nc(N3CCCCC3)c2n1
inactive: [9] 0.0321 | [10] -0.0336 | [1] 0.146 | [2] 0.0658 | [5] 0.21 | [6] 0.0699 | [11] 0.126 | [12] 0.0254 | [13] 0.0443 | [14] 0.0182 | [3] 0.23 | [4] 0.303 | [7] 0.149 | [8] 0.0237 | [15] 0.122 | [16] 0.0614 | [17] 0.0362 | [18] 0.00801 | [19] 0.0527 | [20] 0.00374

O=C(O)c1ccccc1C(=O)Nc1ccc(S(=O)(=O)Nc2nccs2)cc1
inactive: [1] 0.0438 | [2] 0.0682 | [3] 0.0569 | [4] 0.121

O=c1onc2cnc3ccccc3n12
inactive: [5] 0.0859 | [6] 0.147 | [7] 0.139 | [8] 0.0589

COc1ccc(CN2CCN(Cc3cc(OC)c(OC)c(OC)c3)CC2)cc1
inactive: [1] 0.174 | [2] 0.0733 | [3] 0.142 | [4] -0.0868

C[C@]12CC[C@@H]3c4ccc(OC(=O)c5ccccc5)cc4CC[C@H]3[C@@H]1CC[C@@H]2O
inactive: [1] 0.00944 | [2] 0.00898 | [3] 0.189 | [4] 0.15

COC(=O)[C@@H]1CC2=CC(=O)CC[C@]2(C)[C@@]23O[C@@H]2C[C@@]2(C)[C@@H](CC[C@@]24CCC(=O)O4)[C@H]13
inactive: [9] 0.089 | [10] 0.0408 | [11] 0.204 | [12] 0.0537 | [13] 0.086 | [14] 0.0439 | [15] 0.158 | [16] 0.155 | [17] 0.154 | [18] 0.0848 | [19] 0.101 | [20] 0.11

CN1CCN(C(c2ccccc2)c2ccccc2)CC1
inactive: [1] 0.0799 | [2] 0.0506 | [3] 0.178 | [4] 0.175
